Measurements reported in PMC4336329 (PLoS ONE, 2015).
Out of some 310,000 compounds screened, about 2,200 (0.71%) showed an effect of 50% or more. Effects have a minus sign here. This is one part of the list.

Molecular target: human ether-à-go-go-related gene (hERG) potassium channel (human, UniProt Q12809)
Assay: primary screen, population patch clamp on CHO cells stably expressing hERG

Chain of human ether-à-go-go-related gene (hERG) potassium channel (Q12809 whole entry, looked up): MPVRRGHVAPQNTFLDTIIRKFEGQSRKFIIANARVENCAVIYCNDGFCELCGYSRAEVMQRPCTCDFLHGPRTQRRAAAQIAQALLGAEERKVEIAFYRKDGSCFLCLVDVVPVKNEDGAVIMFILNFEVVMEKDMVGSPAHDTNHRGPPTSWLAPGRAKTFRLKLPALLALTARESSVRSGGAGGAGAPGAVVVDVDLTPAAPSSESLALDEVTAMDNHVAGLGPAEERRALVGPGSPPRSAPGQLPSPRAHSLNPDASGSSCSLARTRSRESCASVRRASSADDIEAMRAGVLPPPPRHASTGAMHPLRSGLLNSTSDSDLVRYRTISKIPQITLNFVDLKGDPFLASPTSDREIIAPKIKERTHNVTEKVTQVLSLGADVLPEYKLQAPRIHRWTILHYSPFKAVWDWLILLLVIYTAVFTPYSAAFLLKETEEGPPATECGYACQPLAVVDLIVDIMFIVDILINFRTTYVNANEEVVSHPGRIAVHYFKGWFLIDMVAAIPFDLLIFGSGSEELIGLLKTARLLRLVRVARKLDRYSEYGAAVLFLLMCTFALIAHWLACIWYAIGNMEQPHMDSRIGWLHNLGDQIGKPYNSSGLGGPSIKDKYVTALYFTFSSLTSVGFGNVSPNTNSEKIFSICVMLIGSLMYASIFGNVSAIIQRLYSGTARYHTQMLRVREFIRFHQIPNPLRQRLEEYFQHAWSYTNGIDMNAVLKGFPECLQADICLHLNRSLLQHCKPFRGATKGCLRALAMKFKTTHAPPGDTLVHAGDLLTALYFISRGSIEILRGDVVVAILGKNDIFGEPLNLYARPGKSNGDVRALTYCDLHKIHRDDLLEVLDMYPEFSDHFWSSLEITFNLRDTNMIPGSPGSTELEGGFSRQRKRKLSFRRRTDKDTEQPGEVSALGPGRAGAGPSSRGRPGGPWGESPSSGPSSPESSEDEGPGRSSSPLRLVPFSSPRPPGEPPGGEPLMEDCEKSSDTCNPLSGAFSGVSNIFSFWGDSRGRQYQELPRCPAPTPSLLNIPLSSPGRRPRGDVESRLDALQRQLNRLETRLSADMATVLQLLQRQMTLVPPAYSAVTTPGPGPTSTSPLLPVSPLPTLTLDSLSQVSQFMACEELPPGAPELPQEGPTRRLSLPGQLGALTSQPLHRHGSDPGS

Row | Structure (SMILES) | hERG current change (%, negative = inhibition) at 1uM [%]
1 | COc1ccc(-c2nc(CSCC(=O)N3CCc4ccccc4C3)c(C)o2)cc1OC | 1.32
2 | COc1ccc(COC(=O)N/N=C(\C)CC(=O)Nc2c(C)cc(C)cc2C)cc1 | 10.7
3 | CCC(C(=O)OC)n1cnc2c(cnn2-c2ccc(Cl)cc2)c1=O (stereo not drawn) | 7.2
4 | COc1ccccc1N1CCN(C2CC(=O)N(C)C2=O)CC1 (stereo not drawn) | 15.7
5 | NS(=O)(=O)c1ccc(CCNC(=O)c2ccc(CS(=O)(=O)c3ccc(Br)cc3)o2)cc1 | 48.8
6 | COc1cccc(CNC(=O)CCn2ccc3cc(S(=O)(=O)N4CCCC4)ccc32)c1 | 12.4
7 | Cc1ccc(N(CC(=O)NCc2ccc(F)cc2)C(=O)c2csnn2)cc1C | 8.08
8 | CCOC(=O)c1cc2c(s1)-c1ccccc1CC2 | 5.53
9 | COc1ccccc1NC(=S)N(Cc1cccs1)C1CCCC1 | 4.67
10 | O=C(Cn1c(-c2cscn2)nc2ccccc21)Nc1ccc2ccccc2c1 | -5.3
11 | N#Cc1cn(CCOc2ccc(F)cc2)c2ccccc12 | 5.93
12 | CCCCC(O)(C(NC=O)C(=O)OC)C(F)(F)F (stereo not drawn) | 13.4
13 | CCc1nccn1C(=O)c1cnn2c(C(F)F)cc(-c3ccc(C)cc3)nc12 | 8.51
14 | Cc1cc(N2CCOCC2)nc2cc(O)ccc12 | 8.39
15 | COc1ccccc1CNC(=O)CSc1nn2c(=O)c(C(C)(C)C)nnc2s1 | 14.3
16 | COc1ccc(-c2nc(CS(=O)CC(=O)NCCN3CCCCCC3)c(C)o2)cc1OC (stereo not drawn) | 3.47
17 | Cc1ccc(/C=C/C(=O)OCC(=O)Nc2ccc3[nH]c(=O)[nH]c3c2)o1 | 1.82
18 | COc1ccc(CNC(=O)Cn2cc(C(F)(F)F)ccc2=O)cc1OC | 12
19 | Cc1c(C(=O)Nc2nnc(C3CC3)s2)oc2ccccc12 | 12
20 | O=C(COc1cccc(Cl)c1)Nc1cc(S(=O)(=O)N2CCOCC2)ccc1N1CCOCC1 | -9.87
21 | COC(=O)C(O)(CC(=O)Nc1ccccc1OC)C(F)(F)F (stereo not drawn) | 5.94
22 | O=C(CN1CCC(NC(=O)c2ccc(F)cc2)CC1)NCc1ccccc1F | -0.422
23 | CCC(=O)N1CCN=C1SCc1cccc(F)c1 | 11.5

Row | Structure (SMILES) | hERG current change (%, negative = inhibition) at 1uM [%]
24 | COc1ccc(-c2c(-c3cc(OC)cc(OC)c3)n(C)c3ccc(-c4cc(F)cc(OC)c4)cc23)cc1 | 20
25 | CCOC(=O)c1ccc(N=CC2=C(O)CC(C)(C)CC2=O)cc1 | 6.54
26 | COc1cc(OC)cc(C(=O)Nc2ccccc2-c2nnn(CC(N)=O)n2)c1 | 6.37
27 | COc1ccc(C(C(=O)NC(C)(C)C)N(CCC(C)C)C(=O)CCC(=O)Nc2cc(C)on2)cc1 (stereo not drawn) | 8.23
28 | CCOC(=O)c1c(OCCO)nn(-c2ccc(Cl)cc2)c1N | 7.71
29 | CC1(C)CC(=O)C(C(=S)Nc2ccccc2)=C(NCCN2CCOCC2)C1 | -13.3
30 | Oc1c(N=Nc2ccccc2)sc2ccccc12 | -7.63
31 | CN(C(=S)NC(=O)c1ccccc1Br)C1CCCCC1 | 6.76
32 | COC(=O)c1ccsc1NC(=O)C1COc2ccccc2O1 (stereo not drawn) | 11.2
33 | Cc1ccoc1C(=O)N1CCCC(CO)(Cc2ccc(F)cc2)C1 (stereo not drawn) | 4.74
34 | COc1ccc(CSc2nc(CSC)cc(N3CCOCC3)n2)cc1 | 7.83
35 | O=C(Nc1ccc2c(c1)OCCO2)C1CCN(S(=O)(=O)c2cccc3nsnc23)CC1 | 15.1
36 | COc1ccc(C(=O)NCCn2ccc3ccccc32)cc1 | 5.77
37 | Cl.NC1=NC2(CCCCC2)N(c2ccc(F)cc2F)C(N)=N1 | 12.7
38 | CN(CC(=O)NC1CCCCC1)S(=O)(=O)c1ccc(Cl)cc1 | -8.33
39 | O=C(NC1CCCC1)C1c2ccccc2C(=O)N1CCCN1CCOCC1 (stereo not drawn) | 1.61
40 | CC(=O)/C=C1\SC(CC(=O)O)C(=O)N1c1ccccc1 (stereo not drawn) | 14.8
41 | Nc1ccc(Sc2nc3ccccc3[nH]2)cc1 | 10.5
42 | FC(F)(F)c1cc(-c2ccc(Cl)cc2)nc2ncnn12 | -3.37
43 | Cc1ccc(C23CC4CC(CC(C(N)=O)(C4)C2)C3)cc1 | 13.4
44 | COC(=O)c1ccc(CS(=O)(=O)c2ccccc2C)o1 | 2.66
45 | CCOC(=O)c1c(-c2ccncc2)csc1N | 8.1
46 | CCOC(=O)C1=C(C)OC(N)=C(C#N)C1C1CCCCC1 (stereo not drawn) | 3.26

Row | Structure (SMILES) | hERG current change (%, negative = inhibition) at 1uM [%]
47 | Nn1c(SCc2nc3ccccc3[nH]2)nnc1C1CCCCC1 | 3.15
48 | CCc1cc2c(=O)n(-c3ccc(C)cc3)cnc2s1 | -0.45
49 | CC(=O)c1ccc(N(C(=O)c2ccco2)C(C(=O)NC2CCCC2)c2cccs2)cc1 (stereo not drawn) | -3.62
50 | CC(C)=C(NC(=O)c1ccccc1)C(=O)NC(Cc1ccccc1)C(=O)O (stereo not drawn) | 16.2
51 | CCOC(=O)c1c(C)[nH]c(C)c1C(=O)COC(=O)c1cc(OC)cc(OC)c1 | 15.4
52 | Cc1cc(C)n(-c2nnc(C)c(=O)[nH]2)n1 | -2.17
53 | Cc1cccc(NCc2ccc(O)c3ncccc23)c1C | 9.87
54 | Cc1noc(C)c1COc1cccc(C(=O)Nc2ccccc2)c1 | 16.3
55 | COC(=O)c1cccc(NS(=O)(=O)c2cccs2)c1C | 4.58
56 | O=C(COC(=O)C1CC2CCCC(C1)C2=O)c1cccc(Br)c1 (stereo not drawn) | 3.59
57 | COc1ccc(OC)c(NC(=O)c2cc(-c3cc(C)ccc3O)n[nH]2)c1 | 16.3
58 | COc1ccc(OC2C(=O)N(c3ccc(C)c(C)c3)C2c2ccc(OC)c(OC)c2)cc1 (stereo not drawn) | 15
59 | COc1ccc(-c2cc(C(=O)N/N=C/c3ccc(OC)c(COCC(F)(F)C(F)F)c3)c3ccccc3n2)c(OC)c1 | 19.1
60 | COc1ccc(CCNC(=S)NC2CCN(Cc3ccccc3)CC2)cc1OC | 4.6
61 | COc1ccc(NC(=O)CN(C)C(=O)c2sc3ccccc3c2Cl)cc1 | 13.6
62 | COc1ccc(C(=O)NC(=S)Nc2cccc(NC(=O)c3ccco3)c2)cc1[N+](=O)[O-] | -0.152
63 | Cn1c(=Nc2ccc(N3CCOCC3)cc2)ccc2ccccc21 | -1.7
64 | N/C(=N\OC(=O)COc1ccccc1Cl)c1ccccn1 | 20.8
65 | COc1ccc(CC2(CO)CCN(Cc3cccn3-c3ccccn3)CC2)cc1 | -84.2
66 | Cc1cc(OC(C)C(=O)NCCN2CCOCC2)c2c(C)cc(=O)oc2c1 (stereo not drawn) | 17.7
67 | Nc1ncnc2c1ncn2[C@@H]1O[C@H](CO)[C@@H](O)[C@H]1O | 15
68 | O=C(Nc1ccc2oc(-c3ccccc3F)nc2c1)c1ccc2c(c1)OCCO2 | 3.14
69 | COc1ccc(NC(=O)CCC(=O)N(Cc2ccc(OC)c(OC)c2)c2nccs2)cc1 | 14.5

Row | Structure (SMILES) | hERG current change (%, negative = inhibition) at 1uM [%]
70 | C/C(CC(=O)Nc1ccc2c(c1)OCO2)=N\NC(=O)c1ccccc1N | 9.31
71 | CC(Oc1ccccc1)C(=O)N1CCN(c2ccc(N3CCCCC3)nn2)CC1 (stereo not drawn) | 4.79
72 | COCC(=O)NCCc1ccc(S(N)(=O)=O)cc1 | 17.3
73 | CCOc1cc(N2CCOCC2)c(OCC)cc1NC(=O)CN1C(=O)C2CC=CCC2C1=O (stereo not drawn) | 6.39
74 | [O-][n+]1onc2c1CCc1c-2nc(-c2ccccc2)n1OCc1ccccc1 | 10.8
75 | Cc1ccnc(NC(=S)NC(=O)/C=C/c2ccco2)c1 | 11.6
76 | CC(=O)N1CCC(C(=O)Nc2ccc(S(=O)(=O)NCCc3ccccc3)cc2)CC1 | 16.4
77 | CC(NC(=O)/C(C#N)=C/c1ccc(OCC(=O)O)cc1)c1ccccc1 (stereo not drawn) | 16.1
78 | COc1ccc(COC(=O)Nc2cc3c(C(F)(F)F)nn(C)c3s2)cc1 | 18.5
79 | CCCC(=O)NC1=C(C#N)C2(CCCC2)Cc2ccccc21 | 9.61
80 | O=C(Cc1ccccc1)N/N=C/c1cc(Br)cc(Cl)c1O | 9.33
81 | CCn1c(=O)c([N+](=O)[O-])c(N2CCSCC2)c2ccccc21 | 9.63
82 | Cc1csc2c(=O)sc(NC(=O)c3cccs3)nc12 | 8.61
83 | COc1ccc(C)cc1NC(C)C(=O)NC(=O)NC1CCCCC1 (stereo not drawn) | 11.6
84 | COc1cc(C(=O)NCC(=O)Nc2c(C)cccc2C)ccc1OCc1ccccc1 | -0.468
85 | CC1Nc2ccccc2C(=O)N1NS(=O)(=O)c1ccccc1 (stereo not drawn) | 0.585
86 | CCOC(=O)c1ccc(NC(=O)CN2C(=O)CNC2=O)cc1 | 16.9
87 | CC(C)COc1ccc(C(=O)OC2CC(C)(C)OCC2CN(C)C)cc1.Cl (stereo not drawn) | 7.34
88 | O=c1ccc(-c2ccc(S(=O)(=O)Nc3ccc(F)cc3)s2)n[nH]1 | -1.8
89 | COc1ccc(OC2CCN(S(=O)(=O)c3ccc(F)cc3)CC2)cc1 | 6.67
90 | O=C(Nc1nc2ccsc2c(=O)s1)c1ccc(F)cc1Cl | 4.39
